Results reported in the RNAGym collection of RNA variant scans (doi:10.7554/elife.90254).
The source gives no read counts; variants with many changes may rest on few reads.

B1: LINE1-mini (parent)
chain: GGCAGAGCUCAACACAGCGUGGCAAAGUGGCUGUGGCUAGACUGCC

Variants of: B1
Test: self-cleavage, relative activity (ratio to wild type); higher = more cleavage; in vitro, sequencing; the parent is a self-cleaving ribozyme

Row | Variant | self-cleavage
1 | GGCGGAGCUCAAAACAUCGUGGCAAAGUGGCUGUGGCUAGACUGCA | 0.43
2 | GGCGGAGCUCAACACGGCGUGGCAAAGUGGCUGUGGCUCGACUGCC | 0.16
3 | GGCGGAGUUCAACACAGCGUGGCAAAGUUGCUGUAGUUAGACUGCC | 0.01
4 | GGCGGAGGUCAACACAGAGUGACAAAGUGGCUGUGGCUAGACUGAC | 0.02
5 | GGCGGAGCUCAACACCGCGUGCCAAAGUGGCUGUGGCUAGACCACC | 0.03
6 | GGCGGAGCUCAAAACAGCGUGGCAAAGUGGCUGUGGCUGGACUGCC | 0.1
7 | GGCGGAGCUAAACACAGCGUGGCAAAGUGGCUGUGGCUAGUCUGCC | 0.01
8 | GGCGGAGCUUCACACAGCGUGGCAAAGUGGCUGUGGCAAGACUGCC | 0.01
9 | GGCGGAGCUCAACACAGCGUGGCGAAGUGGCUGUGGCUAGACUAAC | 0.47
10 | GGCGGAGCUCAACACAGCGUGGCAUGGUGGCUGUGGCUAGACUGCC | 0.65
11 | GGCGGAGGUCAACACAGCGUGGCAAAGUGGCUGUGGCUAGACUGAC | 0.03
12 | GGCGGAGCUCAAAACAGCGUGGCAAAGUGUCUGUGGCUAGAGUGCC | 0.04
13 | GGCGGAGGUCAACACAGCGUGGCAAAGUGGCUGUGGCUACACUGCU | 0.02
14 | GGCGGAGGUCAACACAGCGUGGCAAACUGGUUGUGGCUAGACUGCA | 0.02
15 | GGCGGAGCUCAACACAGCGUGGCAGAGUGUCUGUGGCUAGACUGCC | 1.3
16 | GGCGGAGGUCAACACAGCGUGGCAAAGUGGUUGUCGCUAGACUGCC | 0.02
17 | GGCGGAGCUCAACACAGCGUGGCAGAGCGGCUGUGGGUAGACUGCC | 0.02
18 | GGCGGAGCUAAACACAGCGUGGCAAAGUGCGUGUGACUAGACUGCC | 0.05
19 | GGCGGAGCUCAACACCGCGUGACAAAGUGCCUGUGGCUGGACUGCC | 0.2

Row | Variant | self-cleavage
20 | GGCGGAGCUAAACACAGCGUGGGAUAGUGGCUGUGGCUAGACUGCC | 0.02
21 | GGCGGAGCUAAAGACAGCGUGGCAAAGUGGCUGUGGCUAGACAGCG | 0.01
22 | GGCGGAGCUCAACUCAGAGUGGCAAAGUGGCUGUGGCUAGACUGCC | 0.02
23 | GGCGGAGCUGAACACAGCGUGGCAAAGUGGCUGGGGCUAGACUGCC | 0.04
24 | GGCGGAGUUCAACACAGCGUGGCAAAUUUGCUGUGGCUAGACUGCC | 0.15
25 | GGCGGAGCUGAACACAGUGUGGCAAAGUGGCUGUGGCUAGACUGCA | 0.05
26 | GGCGGAGCUCAAAGCAGCGUGGCAAAGUGGCUGUGGCUAGACUGCC | 0.05
27 | GGCGGAGUUCAACACAACGUGGCAAAGUGGCUGUGGCUAGUCUGCC | 0.1
28 | GGCGGAGAUCAACACAGCGUGGCAGAAUGGCUGUGGGCAGGCUGCC | 0.03
29 | GGCGGAGCUUAACACAGCGUGGCAAAGUGGCUGUGGCAAGACUACC | 0.03
30 | GGCGGAGCUCAACACAGCGUGGCCAAGUAGCUGUGGCUAGACUGCC | 0.73
31 | GGCGGAGUUCAACGCAGCGUGGCAAAGUGCCUGUGGCUAGACUGCC | 0.47
32 | GGCGGAGCUGACCACAGCGUGGCAAAGUGGUUGUGGCUAGACUGAC | 0.01
33 | GGCGGAGCUCAACACAGCGUGGCGAAGUGGCUGUGGCUAAACUGCC | 0.21
34 | GGCGGAGUUCAACACAGCGUGGCAAAGUGGCUGUGGCUAGACUGAC | 0.22
35 | GGCGGAGCUCAACUCAGCGUGGUAAAGUGGCUGUGCUUAGACUGCC | 0.05
36 | GGCGGAGCUCAACACAGCGUGGCAAGGUGGCUGUGGCUAGAGUGCC | 0.02
37 | GGCGGAGCUGAACACAGCGUGUCAAAGUGGCUGUGGCUGUACUGCC | 0
38 | GGCGGAGCUCAACACAGCGUGGCAGAGUGACUGUGGCGAGACUGCC | 0.04

Row | Variant | self-cleavage
39 | GGCGGAGCUCAACACAGCGUGGCAACGUGGCUGUGGUUAGACUGCC | 0.02
40 | GGCGGAGAUCAACACAGCGUGGCAAAGUGACUGUGGCUAGACUGCC | 1.36
41 | GGCGGAGCUCAACACAGCGUGGCUAAGUGGCUGCGGCUAGACUGCC | 0.12
42 | GGCGGAGCUCAACACAGCGUGGCCAAGUGGCUCUGGCUAGACUGCC | 0
43 | GGCGGAGCUCAACACAGCGUGGCCAAGUUGCUCUGGCUAGACUGCC | 0.05
44 | GGCGGAGCUCAACACCGCAUGGCAAAGUGGUUGUGGCUAGACUGCC | 0.12
45 | GGCGGAGUUCAACAGAGCGUGGCAAAGUGGCUGUGGCUAGACUGCC | 0.3
46 | GGCGGAGCUCAACACAGCGUGGCAAAGUGGCUGUGGCUGGACUUCC | 0.1
47 | GGCGGAGGUCAACACAUCGUAGCAAAGUGGCUGUGUCUAGACUGCC | 0.02
48 | GGCGGAGUUCAACACAGCGAGUCCAAGUGGCUGUGGCUAGACUGCC | 0.15
49 | GGCGGAGCUUAACACAGCGUGGCAAAGUGGCUGUUGCUAGACUGCC | 0.11
50 | GGCGGAGCUCAACACAGCGUGGCAAGGAGGCUGUGGCUAGACUUCC | 0.09
51 | GGCGGAGCUAAACACAGCCUGGCAAAGUGUCUGUGGCUAGACUGCC | 0.03
52 | GGCGGAGCUCAACACAGCGUGGCAAUGUGGCUGUGGCUAGUCGGCC | 0.12
53 | GGCGGAGCUCAAGACAGCCUGGCACAGUGGCUGAGGCUAGACUGCC | 0.17
54 | GGCGGAGCUGAACACAGCCUGGCAUAGUGGCUGUUGCCAGACUGCC | 0
55 | GGCGGAGCUAAACACAGCGUGGCAAAGUGGCAGUGGCUAGACUGCC | 0.01
56 | GGCGGAGUUCAACAGAGCGUGGCAAAGUUGCUGUGGCUAGACUGCC | 0.28
